# Toxic doses and inconclusive results are not listed. Certain results were filed several times, with different values. The list is limited to them. The source may hold further records. Results that share an entry differ, and nothing given here explains why; they may come from other doses, times, organisms or constructs than stated.
# Tested on: L1210 leukemia ip in BDF1 mice, survival T/C
# Assay: NCI In Vivo Anticancer Drug Screen. Data for tumor model L1210 Leukemia (intraperitoneal) in B6D2F1 (BDF1) mice
# Conditions: higher = longer survival
structure (smiles),measurement,setting,value
COc1cccc2c1C(=O)c1c(O)c3c(c(O)c1C2=O)CC(O)(C(=O)CO)CC3OC1CC(N)C(O)C(C)O1 (centres undefined),T/C,"endpoint: median survival time, dose: 6.6 mg/kg/injection, schedule: Q01DX005 (ip), vehicle: water",121 % of control and 155 % of control
same,T/C,"endpoint: median survival time, dose: 19.0 mg/kg/injection, schedule: Q04DX003 (ip), vehicle: water",115 % of control and 150 % of control
Cc1ccc(C(=O)Nc2ncn(C3CC(O)C(CO)O3)c(=O)n2)cc1 (centres undefined),T/C,"endpoint: mean survival time, dose: 50.0 mg/kg/injection, schedule: Q04DX003 (ip), vehicle: saline with Tween-80",108 % of control and 181 % of control
O=S(=O)(CCl)OCCCCOS(=O)(=O)CCl,T/C,"endpoint: mean survival time, dose: 89.0 mg/kg/injection, schedule: Q01DX001 (ip), vehicle: saline","104 % of control, 107 % of control, 151 % of control"

# — PubChem BioAssay AID248 (DTP/NCI, 2004)
